# Data taken from the supplement of paper PMC8728848.
# This is one part of the list.
# Experiments:
# Assay in all cases: glycan array binding signal (z-score within array); higher = stronger binding
# Settings in all cases: glycan notation: IUPAC condensed, linker removed
# [1] = molecular target: GlcNAc(b1-3)Gal(b1-4)GlcNAc(b1-3)Gal(b1-4)GlcNAc(b1-3)GalNAc
# Summary of the method: (§1)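 Glycan array data were curated from 3228 arrays in the Consortium for Functional Glycomics database and kept only where the protein sequence was available. Glycan names were converted to IUPAC-condensed notation, and columns mapping to the same glycan were averaged. The binding signal is a within-array Z-score, averaged across arrays of the same protein sequence at different concentrations or buffers and across linkers. Negative Z-scores can be read as non-binding.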
# [2] = molecular target: GlcNAc(b1-3)Gal(b1-4)GlcNAc(b1-3)GalNAc
# Summary of the method: as §1
# [3] = molecular target: GlcNAc(b1-3)Gal(b1-4)GlcNAc(b1-3)[GlcNAc(b1-3)Gal(b1-4)GlcNAc(b1-3)]GalNAc
# Summary of the method: as §1
# [4] = molecular target: GlcNAc(b1-3)Gal(b1-4)GlcNAc(b1-6)[Gal(b1-3)]GalNAc
# Summary of the method: as §1
# [5] = molecular target: GlcNAc(b1-3)Gal(b1-4)GlcNAc(b1-6)[GlcNAc(b1-3)Gal(b1-3)]GalNAc
# Summary of the method: as §1
# [6] = molecular target: GlcNAc(b1-3)Gal(b1-4)GlcNAc(b1-6)[GlcNAc(b1-3)]Gal(b1-4)GlcNAc
# Summary of the method: as §1
# GlcNAc(b1-3)GalNAc = molecular target: GlcNAc(b1-3)GalNAc
# Summary of the method: as §1
# GlcNAc(b1-3)Man = molecular target: GlcNAc(b1-3)Man
# Summary of the method: as §1
# [7] = molecular target: GlcNAc(b1-3)[GlcNAc(b1-4)][GlcNAc(b1-6)]GlcNAc
# Summary of the method: as §1
# [8] = molecular target: GlcNAc(b1-3)[GlcNAc(b1-6)]Gal(b1-4)GlcNAc
# Summary of the method: as §1
# [9] = molecular target: GlcNAc(b1-3)[GlcNAc(b1-6)]GalNAc
# Summary of the method: as §1
# [10] = molecular target: GlcNAc(b1-4)Gal(b1-4)GlcNAc
# Summary of the method: as §1
# GlcNAc(b1-4)GlcNAc = molecular target: GlcNAc(b1-4)GlcNAc
# Summary of the method: as §1
# [11] = molecular target: GlcNAc(b1-4)GlcNAc(b1-4)GlcNAc
# Summary of the method: as §1
# [12] = molecular target: GlcNAc(b1-4)GlcNAc(b1-4)GlcNAc(b1-4)GlcNAc(b1-4)GlcNAc
# Summary of the method: as §1
# [13] = molecular target: GlcNAc(b1-4)GlcNAc(b1-4)GlcNAc(b1-4)GlcNAc(b1-4)GlcNAc(b1-4)GlcNAc
# Summary of the method: as §1
# [14] = molecular target: GlcNAc(b1-4)[GlcNAc(b1-6)]GalNAc
# Summary of the method: as §1
# [15] = molecular target: GlcNAc(b1-6)Gal(b1-4)GlcNAc
# Summary of the method: as §1
# GlcNAc(b1-6)GalNAc = molecular target: GlcNAc(b1-6)GalNAc
# Summary of the method: as §1
# [16] = molecular target: GlcNAc6S(b1-3)Gal(b1-4)GlcNAc
# Summary of the method: as §1
# Kdn(a2-3)Gal(b1-3)GalNAc = molecular target: Kdn(a2-3)Gal(b1-3)GalNAc
# Summary of the method: as §1
# Kdn(a2-3)Gal(b1-3)GlcNAc = molecular target: Kdn(a2-3)Gal(b1-3)GlcNAc
# Summary of the method: as §1
# Kdn(a2-3)Gal(b1-4)Glc = molecular target: Kdn(a2-3)Gal(b1-4)Glc
# Summary of the method: as §1
# Kdn(a2-3)Gal(b1-4)GlcNAc = molecular target: Kdn(a2-3)Gal(b1-4)GlcNAc
# Summary of the method: as §1
# [17] = molecular target: Kdn(a2-3)Gal(b1-4)[Fuc(a1-3)]GlcNAc
# Summary of the method: as §1
# Kdn(a2-6)Gal(b1-4)GlcNAc = molecular target: Kdn(a2-6)Gal(b1-4)GlcNAc
# Summary of the method: as §1
# [18] = molecular target: Man(a1-2)Man(a1-2)Man(a1-3)Man
# Summary of the method: as §1
# [19] = molecular target: Man(a1-2)Man(a1-2)Man(a1-6)[Man(a1-3)]Man
# Summary of the method: as §1
# Man(a1-2)Man(a1-3)Man = molecular target: Man(a1-2)Man(a1-3)Man
# Summary of the method: as §1
# [20] = molecular target: Man(a1-2)Man(a1-3)[Man(a1-2)Man(a1-6)]Man
# Summary of the method: as §1
# [21] = molecular target: Man(a1-2)Man(a1-3)[Man(a1-2)Man(a1-6)]Man(a1-6)[Man(a1-2)Man(a1-2)Man(a1-3)]Man
# Summary of the method: as §1
# [22] = molecular target: Man(a1-2)Man(a1-3)[Man(a1-2)Man(a1-6)]Man(a1-6)[Man(a1-2)Man(a1-2)Man(a1-3)]Man(b1-4)GlcNAc(b1-4)GlcNAc
# Summary of the method: as §1
# [23] = molecular target: Man(a1-2)Man(a1-3)[Man(a1-6)]Man(a1-6)[Man(a1-2)Man(a1-3)]Man(b1-4)GlcNAc(b1-4)GlcNAc
# Summary of the method: as §1
# [24] = molecular target: Man(a1-2)Man(a1-6)[Man(a1-3)]Man(a1-6)[Man(a1-2)Man(a1-2)Man(a1-3)]Man
# Summary of the method: as §1
# [25] = molecular target: Man(a1-2)Man(a1-6)[Man(a1-3)]Man(a1-6)[Man(a1-2)Man(a1-2)Man(a1-3)]Man(b1-4)GlcNAc(b1-4)GlcNAc
# Summary of the method: as §1
# Man(a1-3)[Man(a1-6)]Man = molecular target: Man(a1-3)[Man(a1-6)]Man
# Summary of the method: as §1
# [26] = molecular target: Man(a1-3)[Man(a1-6)]Man(a1-6)[Man(a1-2)Man(a1-3)]Man(b1-4)GlcNAc(b1-4)GlcNAc
# Summary of the method: as §1
binder,measurement,setting,value
PX14367B-bvu-516-23-516 (Bacteroides vulgatus) (protein) LDTIPTTYVDAGSVFGKTGDAEKVLNGGWNYLMETFNSYANPGYGAMLRANDAMGSDVVLNSKYGFRTHNEFSAIYGKGGTNTLSWLLAYRVINDCNGVLDNIDAAEGTQADRNRIKGQALALRGFLYLHLASCYSFAIDKDPDAVCAPIYTQSTDETIAAEGKPASSVSEVYAQSINDLEEALELIPETYVRDAKHKIDNEVVLGILSRACLYARQWEKAKTYSDKLLAKDNYLMTESEYKAGFNSVDNKEWIWGHAQTNDQSNASYQFHYLDTTTKGSYYYSFNVDPYFRDLFEDGDYRKEMLFWATDPGADVESAAYVWMRNSKFRFRDIENQLGDIVLMRVAEIYLINAEAKAHLNDPDAINKLNDLKTARGAKTIHTNLSQQDLLETIWLERRKELWGEGFSLIDIIRNQQTVVRNAYPEGPIDYIYTDENGQTHTLKKKTQGHRFFNFPDKSAFCPNSKYYLYRITDSEELANKNLYKDHPKLSIYTK,glycan array binding signal (z-score),[1],-0.12
same,glycan array binding signal (z-score),[2],-0.208
same,glycan array binding signal (z-score),[3],-0.3
same,glycan array binding signal (z-score),[4],-0.323
same,glycan array binding signal (z-score),[5],-0.205
same,glycan array binding signal (z-score),[6],-0.263
same,glycan array binding signal (z-score),GlcNAc(b1-3)GalNAc,-0.292
same,glycan array binding signal (z-score),GlcNAc(b1-3)Man,-0.272
same,glycan array binding signal (z-score),[7],-0.212
same,glycan array binding signal (z-score),[8],-0.16
same,glycan array binding signal (z-score),[9],-0.258
same,glycan array binding signal (z-score),[10],-0.226
same,glycan array binding signal (z-score),GlcNAc(b1-4)GlcNAc,-0.329
same,glycan array binding signal (z-score),[11],-0.348
same,glycan array binding signal (z-score),[12],-0.245
same,glycan array binding signal (z-score),[13],-0.283
same,glycan array binding signal (z-score),[14],-0.238
same,glycan array binding signal (z-score),[15],-0.342
same,glycan array binding signal (z-score),GlcNAc(b1-6)GalNAc,-0.317
same,glycan array binding signal (z-score),[16],-0.249
same,glycan array binding signal (z-score),Kdn(a2-3)Gal(b1-3)GalNAc,-0.198
same,glycan array binding signal (z-score),Kdn(a2-3)Gal(b1-3)GlcNAc,-0.341
same,glycan array binding signal (z-score),Kdn(a2-3)Gal(b1-4)Glc,-0.366
same,glycan array binding signal (z-score),Kdn(a2-3)Gal(b1-4)GlcNAc,-0.299
same,glycan array binding signal (z-score),[17],-0.292
same,glycan array binding signal (z-score),Kdn(a2-6)Gal(b1-4)GlcNAc,-0.281
same,glycan array binding signal (z-score),[18],-0.326
same,glycan array binding signal (z-score),[19],-0.278
same,glycan array binding signal (z-score),Man(a1-2)Man(a1-3)Man,-0.313
same,glycan array binding signal (z-score),[20],-0.409
same,glycan array binding signal (z-score),[21],-0.216
same,glycan array binding signal (z-score),[22],-0.354
same,glycan array binding signal (z-score),[23],-0.362
same,glycan array binding signal (z-score),[24],-0.304
same,glycan array binding signal (z-score),[25],-0.351
same,glycan array binding signal (z-score),Man(a1-3)[Man(a1-6)]Man,-0.383
same,glycan array binding signal (z-score),[26],-0.156
